Assay results: PubChem BioAssay AID485297 (National Center for Advancing Translational Sciences (NCATS), 2010)
Screen size: about 320,000 compounds; about 9,100 (2.8%) were called active. This list was built around the results that the source calls inconclusive (neither active nor inactive); the mix of calls is not that of the screen. The call rests on the fitted dose curve; in most records, active means well fitted activation curve with a large enough effect; inconclusive means small, poorly fitted or top-dose-only effect; inactive means no such curve, though single readings can be large or run the other way. Potencies of inconclusive entries are doubtful fits and often do not repeat.

assay: qHTS Assay for Rab9 Promoter Activators; conditions: Huh7 Rab9 promoter-luciferase reporter, luminescence, 24 h; series mostly up to 9.22 µM; further: nearly all actives have a fitted effect of over 60% in size
Method in brief: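 Cells were plated at 1500 per well in reduced-serum medium with 10% FBS and left 2 h. Compound in DMSO was then added for 24 h at 37 °C. Reporter signal was read by luminescence after 10 min with luciferase detection reagent.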
Potency means the concentration at half of the fitted maximal effect; tags describe the fitted curve by direction and shape.

Potency, inactive:
COc1ccccc1/C=C/C=N/n1c(-c2ccncc2)n[nH]c1=S, Cc1nc2ccccc2c2oc(C(=O)N3CCN(C4CCCCC4)CC3)cc12, Cc1c(CC(=O)NCC(=O)O)c(=O)oc2cc3c(cc12)CCC(C)(C)O3, Cc1ccccc1CS(=O)(=O)Cc1ccc(C(=O)NCCc2ccccc2)o1, Cc1cccc(OCCNS(=O)(=O)c2ccc(Cl)cc2)c1, CCCC[C@H]1COCCS(=O)(=O)N1Cc1cccc([N+](=O)[O-])c1, Cc1ccc(N=Nc2ccc(O)c3ncccc23)cc1, NC(=O)c1cn(-c2ccccc2)nc1-c1cc2ccccc2oc1=O, Cc1ccsc1C(=O)OCC(=O)NCCNC(=O)COC(=O)c1sccc1C, Cc1ccc(S(=O)(=O)N[C@@H](Cc2ccccc2)C(=O)N2CCC[C@@H]2C(=O)O)cc1

Potency, active:
O=C(Nc1nnc(-c2ccccc2F)s1)Nc1ccccc1F 2 µM, Cc1ccc(Nc2ncccc2C(N)=O)cc1[N+](=O)[O-] 3.55 µM, C/C(=N\N=C\c1ccc(N(C)C)cc1)c1cccc([N+](=O)[O-])c1 2.82 µM, Cc1ccc(N/N=C(\C#N)C(=N)N2CCCCCC2)cc1 0.794 µM, CC(C)(C)c1ccc(C(=O)NC(=S)N2CCOCC2)cc1 2.24 µM, O=C1/C(=C/Nc2cccc([N+](=O)[O-])c2)CCc2ccccc21 2.51 µM, Nc1nn(-c2ccccc2)c(N)c1N=Nc1ccccc1F 0.447 µM

Potency, inconclusive:
Cc1cc(C)c2cc3c(N)c(C(=O)N4CCOCC4)sc3nc2c1 2 µM [activator, partial curve], O=C(Nc1ccc2c(c1)OCO2)Nc1ccc(Cl)cc1Cl 3.16 µM [activator, single point], CCOC(=O)c1ccccc1N/C=C/C(=O)c1cccs1 4.47 µM [activator, partial curve], CCOc1ccc(OCCOc2ncnc3ccccc23)cc1 3.16 µM [activator, single point], COC(=O)c1cccc(NC(=O)Cc2coc3cc(OC)ccc23)c1 3.55 µM [activator, single point], CCCOc1cccc(C(=O)Nc2ccc(Br)cc2F)c1 5.62 µM [activator, single point], O=C(/C=C/c1ccco1)Nc1ccc2nn(-c3ccccc3)nc2c1 2.51 µM [activator, partial curve], Cc1ccc(C(=O)CSc2ccccc2C(=O)O)cc1 1.12 µM [activator, partial curve], Cc1ccc(NC(=O)Nc2ccccc2)cc1[N+](=O)[O-] 3.16 µM [activator, partial curve], COc1ccc(NC(=O)c2ccc(C)cc2)c(OC)c1 5.62 µM [activator, single point], N#C/C(=C\c1ccc(N2CCOCC2)o1)c1ccccc1 3.55 µM [activator, single point], N=C1CCCN1CC(=O)c1ccc(Br)cc1 3.55 µM [activator, single point], Cc1cccc(NCc2ccc(N(C)C)cc2)n1 3.55 µM [activator, partial curve], Cc1ccc(-n2c(C)cc(C(=O)COC(=O)c3ccc[nH]c3=O)c2C)cc1C 1.26 µM [activator, partial curve], CN1CCc2c(sc(/N=C/c3cccs3)c2C(N)=O)C1 2.82 µM [activator, single point], CCN(CC)C(=O)c1cc2c(=O)n3cccc(C)c3nc2s1 3.16 µM [activator, partial curve], Cc1nnc(N/N=C/c2cccc(OCc3ccc(Cl)c(Cl)c3)c2)n1N 5.62 µM [activator, single point], CCOC(=O)c1c(C)[nH]c(N=Nc2ccccc2)c1C 6.31 µM [activator, single point], CCc1cc(CNC(=O)c2cc(COc3ccc(C)nc3)on2)on1 3.16 µM [activator, single point], CC(=Nc1cccc(O)c1)c1sc2ccccc2c1O 3.16 µM [activator, single point], Cc1ccc(OCCCC(=O)N2CCOCC2)c(C)c1 2.24 µM [activator, partial curve], COc1ccccc1NC(=O)Nc1ccc(N2CCOCC2)cc1 3.16 µM [activator, single point], O=C(COc1ncnc2ccccc12)c1ccc(Cl)cc1 3.55 µM [activator, partial curve], C/C(NC(=O)c1ccccc1)=C1/C(=O)CC2C1C2(C)C (stereo not drawn) 3.16 µM [activator, partial curve], CNc1nc(N)c(C(=O)Nc2cc(C)on2)s1 3.55 µM [activator, single point], c1ccc(OCc2nc(-c3ccncc3)no2)cc1 6.31 µM [activator, single point], Cc1ccc2oc(-c3ccc(NC(=O)CC(C)C)cc3)nc2c1 0.562 µM [activator, full curve], O=[N+]([O-])c1cccnc1Sc1n[nH]c(-c2ccc(Cl)cc2)n1 3.16 µM [activator, single point], O=C(Nc1nnc(-c2ccco2)s1)C1CC1 3.55 µM [activator, single point], CCOc1cc(/C=N/NC(=O)Nc2ccccc2)ccc1O 5.62 µM [activator, single point], CCOc1ccc(-c2ccc(SCC(=O)N3CCOCC3)nn2)cc1 4.47 µM [activator, single point]
